Here are results for one molecule from US20210221874A1 (TRUSTEES OF TUFTS COLLEGE, published 2021).

Broadly, the Kd is the constant that tells how readily two partners part at equilibrium. Low values mean tighter binding, high ones weaker binding. As a reminder, the EC50 is the concentration needed to bring the measured effect to its halfway point. Read a low EC50 as an effect from little substance.

In test [1] the target is T1, anthrax protective antigen, wild type PA83 (Bacillus anthracis). Put plainly: cell-based or functional assay.
The target in test [2] is T1, anthrax protective antigen, wild type …. Put plainly: cell-based or functional assay. This is another data set of the same source.
Test [3] has the same target. Put plainly: method not stated.
For test [4] the target is unchanged. Put plainly: dilution ELISA on PA-coated plates. In general terms: ELISA stands for enzyme-linked immunosorbent assay.

B1: VNA2-PA (JKU-1) (bispecific antibody)
chain: [about 100 residues skipped]GSGSGHMHHHHHHSSGLVPRGSGMKETAAAKFERQHMDSPDLGTDDDDKAMAISDPNSGAPVPYPDPLEPRAAAQVQLAESGGGLVQPGGSLGLSCVVASERSINNYGMGWYRQAPGKQRELVAQISSGGTTNYADSVEGRFTISRDNVKKMVHLQVNSLKPEDTAVYYCNSLLRTFSWGQGTQVTVSSEPKTPKPQAIAGGGGSGGGGSGGGGSLQGQVQLAESGGGGLVQAGGSLRLSCAASGRTFSGYAMGWFRQAPGKEREFVADISWSGHNTYYGDSVKGRFTISRDTAKNTVYLQMNSLKPEDTAVYYCAAEGARTHLSDSYYFPGLWAEPPVGYWGQGTQVTVSSEPKTPKPQPARQGAPVPYPDPLEPRGGGSDICLPRWGCLWED
notes: also called heterodimer of JIK-B8 and JKH-C7
B1: the “IC50 (anthrax lethal toxin neutralization, RAW264.7 macrophages)” value in test [1] was 0.5 nM. In test [2], the “IC50 (read off the curve)” value is ~0.5 nM. The Kd in test [3] stood at 0.07 nM. The molecule further had an EC50 in test [4] of 1 nM.
